Measurements reported in ChEMBL document CHEMBL1201862, “PubChem BioAssay data set” (2004).
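Where inhibition never reached the appropriate level, the endpoint shown equals the highest concentration tested. Otherwise, values were interpolated linearly from a five-concentration, 48-hour dose response in 96-well plates. GI50 is the concentration that inhibits growth by half.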 The source made the active and inactive calls. Rule as the data show it: active = GI50 up to about 1.1 µM and inactive = higher.

Tested on: NCI-H322M
Assay: NCI anticancer screen, dose series, 48 h

SMILES	GI50
CCOC(=O)CCSS(=O)(=O)C(F)(F)F	inactive: > 100 µM
CCN(CC)CCCNc1c2cc(OC)ccc2nc2cccc([N+](=O)[O-])c12	active: 0.149 µM
C[N+]1(C)C/C(=C\c2ccncc2)C(=O)/C(=C/c2ccncc2)C1	inactive: > 100 µM
O=C(O)c1cn2c3c(cc(N4CCN(CCO)CC4)cc3c1=O)SCC2	inactive: 74 µM
Cc1cc2c(cc1Cl)SC(NNC(=O)c1ccncc1)=NS2(=O)=O	inactive: > 10 µM
CCCCCCCC/C=C\CCCCCCCCCCCC(=O)O [ERUCIC ACID]	inactive: 49.5 µM
CCOC(=O)Nc1ccc(S(=O)(=O)NCCCl)cc1.CCOC(=O)Nc1ccc(S(=O)(=O)NCCCl)cc1.O=C(O)c1ccc(/N=N/Cl)cc1O	inactive: > 100 µM
CCOc1cc2c(OCc3ccccc3)cc3c4cc(OC)c(OC)cc4c[n+](C)c3c2cc1OC	inactive: 3.53 µM
NC(=S)N1N=C2c3ccccc3CC[C@H]2[C@@H]1c1ccc(Cl)cc1	inactive: 30.8 µM
CCOc1cc(C(=O)O)c2c(ccc3ccc(OC)c(OC)c32)c1OC	inactive: > 100 µM
c1ccc2c(c1)Nc1nc3nonc3nc1N2	inactive: > 100 µM
Cc1nc(O)c(O)c(CN2CCCCC2)n1	inactive: > 100 µM
Nc1nc(Cl)cc(NCCCCCCCCCCCCNc2cc(Cl)nc(N)n2)n1	inactive: > 100 µM
O=C(O)CNC(=O)c1ccc([As](=O)(O)O)cc1	inactive: > 100 µM
CC(C)(C)[Si](C)(C)OCC1CCC(n2cnc3c(N)ncnc32)O1 (stereo not given)	inactive: > 100 µM
O=C1C2Nc3ccccc3SC2C(=O)N1c1ccc(Br)cc1 (stereo not given)	inactive: 8.2 µM
C[C@H]1CCC2C(CN3CCCCC3)C(=O)OC2[C@]2(C)C(=O)CC(N3CCCCC3)C12O (stereo not given in full)	inactive: 13.5 µM
COc1ccc(C2COc3c(ccc(O)c3C)C2)cc1OC (stereo not given)	inactive: 125 µM
C/C=C1/C(=O)O[C@]23C=C[C@@H]4C(C(=O)OC)=CO[C@H](O[C@@H]12)[C@@H]43 [PLUMERICIN]	inactive: 2.37 µM
COc1ccc(O)c(C#N)c1C#N.COc1ccc(OC)c(C#N)c1C#N	inactive: > 100 µM
O=C(O)COc1c(Cl)cc(Cl)c2cccnc12	inactive: > 100 µM
Cn1cc(-c2ccc3c4ccccc4n(C)c3c2)c2ccccc21	inactive: > 100 µM
CCOC(=O)c1sc2nc(SC)nc3c2c1NCN3c1ccccc1Cl	inactive: > 100 µM
Fc1cccc(CSc2ncnc3c2ncn3C2CCCS2)c1 (stereo not given)	inactive: 38.2 µM

SMILES	GI50
CC1C=C(OC(=O)c2ccccc2)C(=O)C(n2cc(F)c(=O)n(C(=O)c3ccccc3)c2=O)O1 (stereo not given)	inactive: > 100 µM
Cc1cc2c(c(C#N)c1C)NC(=O)C(CC(=O)O)C2=O (stereo not given)	inactive: > 100 µM
CC(C)CCC[C@@H](C)[C@H]1CC[C@H]2C3=C[C@H](OS(=O)(=O)O)[C@@]4(O)C[C@@H](O)CC[C@]4(C)[C@@]3(O)CC[C@]12C	inactive: > 100 µM
Cn1cco/c1=N/c1ccc(Cl)c(Cl)c1	inactive: > 10 µM
CCN(CC)c1ccc(C2Nc3ccc4ccccc4c3C3=C2C(=O)CCC3)cc1 (stereo not given)	inactive: > 100 µM
C=C(C)CCC1C=[N+]([O-])OC(C)(C)C1(C)C (stereo not given)	inactive: > 100 µM
O=C(C(Cl)=C(Nc1ccccc1)Nc1ccccc1)C(Cl)Cl	inactive: 28.9 µM
CCOC(=O)C1c2[nH]c3ccccc3c2CCN1C(=O)c1ccc(OC)o1 (stereo not given)	inactive: > 10 µM
Cn1c(N)nc(-c2ccc(Cl)cc2)c1SSc1c(-c2ccc(Cl)cc2)nc(N)n1C	inactive: 19.8 µM
COC(=O)C12C3C=CC(O3)C1C1C=CC2O1 (stereo not given)	inactive: > 100 µM
CC(=O)NN(c1ccccc1)C1CCN(c2ccccc2)N1C(C)=O (stereo not given)	inactive: > 10 µM
C=C1CCC2C(C)(CO)C(O)CCC2(C)C1CC(O)/C(=C/CO)C(=O)O (stereo not given)	inactive: > 100 µM
C/C(=N/NC(=O)c1ccccc1Nc1ccccc1C(=O)N/N=C(\C)c1ccc(C)cc1)c1ccc(C)cc1	inactive: > 100 µM
CSc1cnc2ccccc2c1Sc1cn(C)c2ccccc2c1=O	inactive: 4.31 µM
O=C1c2cc([N+](=O)[O-])ccc2-c2cccc(F)c21	inactive: > 100 µM
COC(=O)C1(C)CCCC2(C)C3CCC4CC3(C=C4CO)CCC12 (stereo not given)	inactive: 82 µM
CC1CN(C(=O)CN2CCC(CCCCN(C)C)CC2)c2ccccc2NC1=O (stereo not given)	inactive: > 100 µM
Cc1occc(=O)c1O [MALTOL]	inactive: > 100 µM
CCOC(=O)c1c(O)nc(O)c(CC)c1C	inactive: > 100 µM
C#CCn1c(=O)c(I)cn(/C(=C\C(=O)OCC)C(=O)OCC)c1=O	inactive: 16.7 µM
C=C1C[C@@H](O)[C@@H](Br)C(C)(C)[C@@]12C=CC(=O)CC2	inactive: > 100 µM
CCSC1=N/C(=C\c2ccccc2O)C(Nc2ccc(C)cc2)=N1	inactive: > 100 µM
Cc1cc(C)nc(NS(=O)(=O)c2ccc(NC(=O)c3ccc(Cl)c4c(Nc5ccc(S(=O)(=O)Nc6cc(C)on6)cc5)c5ccccc5nc34)cc2)n1	inactive: 16.9 µM
CCCC/C=C/C/C=C/CCCCCCCCC(=O)OCC1CCCN2CCCCC12 (stereo not given)	inactive: > 100 µM

SMILES	GI50
COc1ccc(CNc2nc(NCc3ccc(OC)cc3)nc(NC(C)C)n2)cc1	inactive: 11.4 µM
CCN1C(Cl)=NS(=O)(=O)c2ccccc21	inactive: > 100 µM
OCc1ccc(-c2ccc(-c3ccc(CO)s3)o2)s1	inactive: 9.62 µM
COC(=O)C1[C@H](c2cc(OC)c(OC)c(OC)c2)OC(=O)C1(C(=O)OC)C(=O)c1ccc2c(c1)OCO2 (stereo not given in full)	inactive: > 100 µM
Cc1ccc(C2(c3ccc(F)cc3)OC(=O)c3ccccc32)c(O)c1 (stereo not given)	inactive: 13 µM
NC(CC(=O)Nc1cc(C(F)(F)F)ccc1Cl)=NO	inactive: > 100 µM
O=[N+]([O-])c1ccc(/C(=C\c2ccccc2)Cn2ccnc2)cc1	inactive: 56.9 µM
C[C@@]1(Cc2ccccc2)C(=O)N2[C@@H](CO)C(c3ccccc3)O[C@]2(C)c2ccccc21 (stereo not given in full)	inactive: > 100 µM
O=C1Nc2ccccc2C12CCNC2Cc1ccccc1 (stereo not given)	inactive: > 100 µM
CCc1c(O)c(O)c(C(C)=O)c2c(O)c(-c3c(C)cc4c(CC)c(O)c(O)c(C(C)=O)c4c3O)c(C)cc12	inactive: 6.03 µM
CCCNC1=Nc2ccccc2N(Cc2ccccc2)CC1	inactive: 31.4 µM
CC[C@]1(Cc2ccc(OC)c(OC)c2)CN(S(=O)(=O)c2ccc(C)cc2)C[C@@H]1OC(C)=O	inactive: > 100 µM
O=C(NC(=O)c1cn(CCNCCO)c(=O)[nH]c1=O)OCc1ccccc1	inactive: > 100 µM
CCC1(c2ccccc2)C(=O)N=C(c2ccccc2)N1CCc1ccccc1 (stereo not given)	inactive: > 100 µM
OCC(O)C(O)C(O)C(O)c1nnn[nH]1 (stereo not given)	inactive: > 100 µM
O=C1C2Cc3ccccc3CN2C(=O)N1CCN1CCCC1 (stereo not given)	inactive: > 100 µM
COC(=O)C(C)(C)NC(=O)C(Cc1ccccc1)Nc1ncnc2c1ncn2-c1ccc(OC)cc1 (stereo not given)	inactive: 45.1 µM
ClCc1nc2ccccc2[nH]1	inactive: > 100 µM
NC(CO)c1ccccc1 (stereo not given)	inactive: > 100 µM
O=c1[nH]c(=O)n(C2CC(O)C(CO)O2)cc1C#Cc1cc(F)cc(F)c1 (stereo not given)	inactive: > 100 µM
COc1ccc2oc(-c3ccncc3)cc(=O)c2c1	inactive: > 100 µM
Brc1ccc(-c2nnc(-c3nn(-c4ccccc4)c4nc5ccccc5nc34)o2)cc1	inactive: > 100 µM
CN(Cc1ccccc1)/C(=N\C#N)N(Cc1ccccc1)Cc1ccccc1	inactive: 38.5 µM
COc1c(Sc2c(SCSc3cnc4ccccc4c3Sc3cnc4ccccc4c3OC)cnc3ccccc23)cnc2ccccc12	inactive: > 100 µM

SMILES	GI50
COc1cc(C2=C(c3cc(OC)c4ccccc4c3OC)C(=O)c3ccccc3C2=O)c(OC)c2ccccc12	inactive: 82.2 µM
C[C@H](CSC(=O)c1ccccc1)C(=O)N1c2ccccc2C[C@H]1C(=O)O	inactive: > 100 µM
CC(C)(C)c1cc(C(C)(C)C)c(SSc2c(C(C)(C)C)cc(C(C)(C)C)c(O)c2O)c(O)c1O	inactive: 20.5 µM
O=C1N2CCc3c([nH]c4ccccc34)C23CC2CCCC12S3 (stereo not given)	inactive: > 50 µM
Cc1ccc2c(O)cc(-c3ccccc3)nc2n1	active: 0.618 µM
Cc1cccc(C)c1NC(=O)C(=O)C(C(=O)c1ccccc1-c1ccccc1)C1OC(=O)c2ccccc21 (stereo not given)	inactive: 22.4 µM
C[P+]1(c2ccccc2)CCCCC1	inactive: > 100 µM
O=[N+]([O-])c1ccc(Sc2c3ccccc3nc3cc(Cl)ccc23)cc1	inactive: > 10 µM
S=C(N/N=C(/c1ccccc1)c1ccccn1)N(Cc1ccccn1)Cc1ccccn1	active: 0.112 µM
CC1(C)OCC(COC(=O)C=[N+]=[N-])O1 (stereo not given)	inactive: > 100 µM
COc1ccc(-c2oc3cc(OC(C)=O)cc(OC(C)=O)c3c(=O)c2OC)cc1	inactive: 25.4 µM
CN(C)CCCNc1c(C#N)[n+]([O-])c2cc(Cl)ccc2[n+]1[O-]	inactive: 23.2 µM
CC(=O)NNc1nc(C)c(C(=O)NNC(=O)C(=O)Nc2cccc(C(C)=O)c2)s1	inactive: 18 µM
COc1ccc(N)c(C(O)CCNC(C)=O)c1 (stereo not given)	inactive: > 100 µM
CCCC(Sc1nc(N)nc2nc[nH]c12)C(=O)O (stereo not given)	inactive: > 100 µM
N=C(N)NCCCCCCC(=O)NC(O)C(=O)NCCCCNCCCN (stereo not given)	inactive: > 750 µM
CC1=Nn2c(nnc2-c2ccccc2Cl)NC(C)(C)C1	inactive: > 100 µM
COc1c(-c2nc3ccc(N4CCN(C)CC4)nc3[nH]2)cc(OC)c2[nH]c(COC(C)=O)nc12	inactive: 23.6 µM
Cn1c(=O)nc2n(-c3cccc(Br)c3)c3ccccc3nc-2c1=O	inactive: 5.2 µM
CCOC(=O)/C=C(\N=P(c1ccccc1)(c1ccccc1)c1ccccc1)C(F)(F)C(F)(F)C(F)(F)C(F)(F)C(F)(F)F	inactive: > 100 µM
COc1c2c(nc3ccccc13)-c1cc(C(CC(=O)OC(C)(C)C)C(=O)OC(C)C)c(CO)c(=O)n1C2 (stereo not given)	inactive: > 100 µM
CCCCCCCC(=O)N1C2CC3CCC2(CS1(=O)=O)C3(C)C (stereo not given)	inactive: > 10 µM
COc1cc2nc3n(c(=O)c2cc1OC)-c1ccc([N+](=O)[O-])cc1C3=O	inactive: > 100 µM
